Source: PubChem BioAssay AID485360 (National Center for Advancing Translational Sciences (NCATS), 2010)
Several values for one entry are separate records, joined by “and”; a condition that tells them apart may be missing. Equal values may be shown once. Among all 230,000 compounds or so, about 1,500 (0.65%) were called active. Inconclusive means that the source gave no clear call. Such entries were picked first, then a sample of the others. The call rests on the fitted dose curve; in most records, active means well fitted inhibition curve with a large enough effect; inconclusive means small, poorly fitted or top-dose-only effect; inactive means no such curve, though single readings can be large or run the other way. A potency beside an inconclusive call is a rough fit, not a confirmed value.
Further: nearly all actives have a fitted effect of over 60% in size.
On the % scale 0 is the no-effect control and ±100 the full control effect; potency means the concentration at half of the fitted maximal effect; tags describe the fitted curve by direction and shape.

What follows are molecules tested against Lethal(3)malignant brain tumor-like protein 1 (Homo sapiens) (UniProt Q9Y468) (assay: qHTS Assay for the Inhibitors of L3MBTL1). Settings: AlphaScreen L3MBTL1–H3K9me1 peptide binding; activity, negative = inhibition: at 57.1 µM (top of the series).
Chain of UniProt Q9Y468 (Q9Y468 whole entry, looked up): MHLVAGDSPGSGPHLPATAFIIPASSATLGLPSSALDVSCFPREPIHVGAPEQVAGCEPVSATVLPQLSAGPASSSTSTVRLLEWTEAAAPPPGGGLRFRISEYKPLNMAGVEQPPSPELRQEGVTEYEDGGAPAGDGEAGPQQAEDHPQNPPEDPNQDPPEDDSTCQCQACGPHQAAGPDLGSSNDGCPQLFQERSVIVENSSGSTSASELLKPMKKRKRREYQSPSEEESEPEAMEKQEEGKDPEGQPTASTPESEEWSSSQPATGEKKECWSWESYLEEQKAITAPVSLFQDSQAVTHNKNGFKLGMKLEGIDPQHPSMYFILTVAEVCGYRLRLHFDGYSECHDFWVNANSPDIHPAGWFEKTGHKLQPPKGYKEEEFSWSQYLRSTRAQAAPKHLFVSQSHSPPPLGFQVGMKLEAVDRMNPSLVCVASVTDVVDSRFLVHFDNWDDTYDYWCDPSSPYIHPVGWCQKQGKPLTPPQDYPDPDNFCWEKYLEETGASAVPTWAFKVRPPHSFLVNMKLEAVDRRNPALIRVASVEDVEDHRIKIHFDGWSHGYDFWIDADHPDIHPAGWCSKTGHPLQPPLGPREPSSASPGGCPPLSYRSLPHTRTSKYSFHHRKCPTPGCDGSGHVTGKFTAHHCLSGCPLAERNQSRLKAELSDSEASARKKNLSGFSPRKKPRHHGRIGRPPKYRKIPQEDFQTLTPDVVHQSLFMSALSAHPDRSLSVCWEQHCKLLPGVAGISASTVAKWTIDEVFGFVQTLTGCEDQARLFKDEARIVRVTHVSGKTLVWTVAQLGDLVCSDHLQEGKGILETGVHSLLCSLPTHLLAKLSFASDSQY
Method in brief: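 Displacement of a biotinylated histone H3(1-15) peptide monomethylated at Lys9 (75 nM) from L3MBTL1 (50 nM) was measured by AlphaScreen after a 30 min room-temperature compound incubation; cefsulodin titration served as intraplate control.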
With `Cc1cccc(NC(=O)CSc2nc(NS(=O)(=O)c3ccccc3)cc(=O)[nH]2)c1` the Potency was inconclusive: 31.6 µM [inhibitor, single point]. `CC(=O)c1ccc(Sc2ccccc2N)c([N+](=O)[O-])c1` was tested, and the Potency was inconclusive: 31.6 µM [inhibitor, single point]. For `Nc1n[nH]c(N)c1N=Nc1ccc(F)cc1`, the Potency was inconclusive: 20 µM [inhibitor, single point]. `Oc1c(CN2CCCCC2)cc(Br)c2cccnc12` was tested, and the Potency was inconclusive: 39.8 µM [inhibitor, single point]. With `CCOC(=O)N1CCN(C(=O)C(C)NC(=O)c2ccco2)CC1` (stereo unspecified) the “activity, negative = inhibition” value was inactive: 4.15%. With `C/C(=C\C(=O)c1ccc(C)o1)Nc1ccc(C(=O)O)cc1C` the “activity, negative = inhibition” value was inactive: -11.5%. In the case of `O=C(COc1ccccc1)NCCSCc1ccco1`, the Potency is reported as inconclusive: 14.1 µM [inhibitor, partial curve]. For `CCc1ccc(N=C2NC(=O)/C(=C/c3cc(Br)c(OCC(=O)O)c(OC)c3)S2)cc1`, the Potency was inconclusive: 39.8 µM [inhibitor, single point]. `COc1ccccc1Nc1nc(N)nc(CN2CCCCCC2)n1` was tested, and the Potency was inconclusive: 25.1 µM [inhibitor, single point]. For `S=C(NNc1cccc(Cl)c1)NC1CCCCC1`, the “activity, negative = inhibition” value was inactive: -18.9%. With `Cc1ccc(NC(=O)CSc2nnc(Cc3csc(C)n3)o2)cc1` the Potency was inconclusive: 39.8 µM [inhibitor, single point]. `CCN(CCNC(=O)C1CCN(S(=O)(=O)c2cccc3cccnc23)CC1)c1ccccc1` was tested, and the Potency was inconclusive: 0.708 µM [inhibitor, full curve]. In the case of `COc1ccc(OC)c(CN2CCCCCC2)c1`, the “activity, negative = inhibition” value is reported as inactive: 0.336%. `O=[N+]([O-])c1cc(/C=N/n2c(-c3cccnc3)n[nH]c2=S)ccc1Cl` was tested, and the Potency was inconclusive: 20 µM [inhibitor, partial curve]. With `CS(=O)(=O)c1ccc(Sc2nc3ccccc3[nH]2)c([N+](=O)[O-])c1` the “activity, negative = inhibition” value was inactive: -4.94%. `O=[N+]([O-])c1ccc(Cl)c2c1C1C=CCC1C(c1ccccn1)N2` (stereo unspecified) was tested, and the Potency was inconclusive: 11.2 µM [inhibitor, partial curve]. `CCCn1c(=S)[nH]c2cc(C(=O)NCC3CCCO3)ccc2c1=O` (stereo unspecified) was tested, and the “activity, negative = inhibition” value was inactive: -2.47%. `COCCNC(=O)c1cnn2c1NC(c1ccco1)CC2C(F)(F)F` (stereo unspecified) was tested, and the “activity, negative = inhibition” value was inactive: 2.66%. In the case of `O=C(NNc1nc2ccccc2s1)c1ccccc1F`, the “activity, negative = inhibition” value is reported as inactive: -23.9%. With `CCOC(=O)[C@@H]1[C@H]2COc3ccccc3[C@@H]2N2C(=O)N(c3cccc(Cl)c3)C(=O)[C@]12C` the “activity, negative = inhibition” value was inactive: -2.6%. `C/C(=N\Nc1ccc(C(=O)O)cc1)c1ccc2c(c1)Nc1ccccc1S2` was tested, and the Potency was active: 28.2 µM. With `NC(=O)c1ccc(N=C2C(=O)Nc3ccc([N+](=O)[O-])cc32)cc1` the Potency was inconclusive: 10 µM [inhibitor, partial curve]. With `C=CCc1ccc(OCCCCN2CCC(C)CC2)c(OC)c1` the “activity, negative = inhibition” value was inactive: 1.77%. `O=C1CCCC(O)=C1N=Nc1cccc(C(=O)O)c1` was tested, and the Potency was active: 8.91 µM. In the case of `C=CCc1cccc(CNn2cnnc2)c1O`, the Potency is reported as inconclusive: 39.8 µM [inhibitor, single point]. `CCOc1ccc(NC(=O)CCS(=O)(=O)c2ccc3c(c2)CCCN3C(C)=O)cc1` was tested, and the Potency was inconclusive: 39.8 µM [inhibitor, single point]. With `O=C(/C(=N/N=C/c1ccc(O)c(O)c1)c1ccccc1)c1ccccc1` the Potency was inconclusive: 31.6 µM [inhibitor, partial curve]. With `CC(C)(C)C1CCC(=NNc2nc3ccccc3[nH]2)CC1` (stereo unspecified) the Potency was inconclusive: 39.8 µM [inhibitor, single point]. In the case of `Cc1ccc(Nc2nc(-c3sc(NC(=O)c4ccco4)nc3C)cs2)cc1`, the “activity, negative = inhibition” value is reported as inactive: -11.1%. `O=C(c1cccc(S(=O)(=O)NCc2ccccc2)c1)N1CCCC(C(F)(F)F)C1` (stereo unspecified) was tested, and the “activity, negative = inhibition” value was inactive: 28.6%. `CSc1ccc(N=Nc2c(C)[nH]n(C)c2=O)cc1` was tested, and the Potency was inconclusive: 39.8 µM [inhibitor, single point]. `Cc1nc(Nc2ccc(Cl)cc2Cl)sc1C(=O)Nc1ccccc1` was tested, and the “activity, negative = inhibition” value was inactive: 7.06%. `COc1ccc(NC(C)c2cc(Cl)ccc2O)cc1` (stereo unspecified) was tested, and the Potency was inconclusive: 39.8 µM [inhibitor, single point]. With `CC(C)(C)C(=O)COC(=O)c1c2c(nc3ccccc13)CCC2` the Potency was inconclusive: 28.2 µM [inhibitor, single point]. `CCCn1c(SCC(=O)Nc2cc(S(=O)(=O)N3CCOCC3)ccc2Cl)n[nH]c1=O` was tested, and the “activity, negative = inhibition” value was inactive: 7.83%. With `COC(=O)c1c(NC(=O)COC(=O)c2ccc(NC(=O)CC#N)cc2)sc2c1CCCCC2` the Potency was inconclusive: 39.8 µM [inhibitor, single point]. `CC1(C)Cc2c(sc(NC(=O)/C=C/C(=O)O)c2C#N)CO1` was tested, and the “activity, negative = inhibition” value was inactive: -9.45%. In the case of `O=[N+]([O-])c1ccc(N/N=C\c2cccn2-c2ccccc2)nc1`, the Potency is reported as inconclusive: 12.6 µM [inhibitor, partial curve]. `CCOC(=O)C1=NN(C(=O)Nc2ccc(OC)cc2)C2C(=O)N(c3cccc(C(F)(F)F)c3)C(=O)C12` (stereo unspecified) was tested, and the Potency was inconclusive: 6.31 µM [inhibitor, single point]. In the case of `CC1(CC(=O)N/N=C/c2cc([N+](=O)[O-])c(O)cc2O)OCCO1`, the Potency is reported as inconclusive: 28.2 µM [inhibitor, single point]. `CC(C)C(=O)Nc1cccc(NC(=O)c2cccc(Br)c2)c1` was tested, and the Potency was inconclusive: 0.631 µM [inhibitor, full curve, poor fit]. In the case of `Cc1ccc(S(=O)(=O)NC(C)CCc2ccccc2)cc1C(N)=O` (stereo unspecified), the Potency is reported as inconclusive: 0.562 µM [inhibitor, partial curve, poor fit]. With `C=CCn1c(SCC(=O)c2ccc(O)c(O)c2)nnc1-c1cccnc1` the Potency was active: 6.31 µM. `CN(C)CCCn1c(N)c(C#N)c2nc(C#N)c(C#N)nc21` was tested, and the Potency was inconclusive: 6.31 µM [inhibitor, single point]. For `Fc1ccc(N2CCN(C3=Nc4cccc5cccc3c45)CC2)cc1`, the Potency was inconclusive: 6.31 µM [inhibitor, partial curve]. `O=C(N/N=C/c1ccc(F)cc1)c1cc(-c2ccco2)nc2ccccc12` was tested, and the Potency was active: 3.55 µM. `Nc1nc2n(n1)C(c1cccc(Br)c1)CC(c1ccccc1)N2` (stereo unspecified) was tested, and the Potency was inconclusive: 28.2 µM [inhibitor, single point]. `COc1cc(-c2cc(C(=O)NN3CCN(C)CC3)c3ccccc3n2)cc(OC)c1OC` was tested, and the Potency was inconclusive: 0.708 µM [inhibitor, single point]. In the case of `O=C(Oc1ccc2c(=O)c(Oc3ccc4ccccc4c3)coc2c1)c1cncc(Br)c1`, the “activity, negative = inhibition” value is reported as inactive: 2.49%. `Cc1cccc2sc(NNC(=O)c3ccc(S(=O)(=O)N4CCCC(C)C4)cc3)nc12` (stereo unspecified) was tested, and the Potency was inconclusive: 20 µM [inhibitor, partial curve]. For `CC(=O)NC(C)c1cc(Cl)c2cccnc2c1O` (stereo unspecified), the Potency was inconclusive: 28.2 µM [inhibitor, single point] and inconclusive: 39.8 µM [inhibitor, partial curve]. `C=CCc1cccc(/C=N/NC(=O)CCCNc2ccc(C)cc2)c1O` was tested, and the “activity, negative = inhibition” value was inactive: -12.4%. For `COc1ccccc1Cn1c(=S)[nH]c2cc(C(=O)NCc3cccnc3)ccc2c1=O`, the Potency was inconclusive: 35.5 µM [inhibitor, partial curve]. In the case of `COc1ccc(NC(=O)CSc2nc(C)cs2)cc1`, the Potency is reported as inconclusive: 0.355 µM [inhibitor, full curve]. In the case of `Clc1ccccc1CN1CCN(/N=C/c2ccncc2)CC1`, the Potency is reported as inconclusive: 14.1 µM [inhibitor, partial curve, poor fit]. For `CCN(c1ccc(N=Cc2c(O)n(Cc3ccc(OC)cc3)c(=O)c3ccccc23)cc1)C(C)C`, the Potency was inconclusive: 0.126 µM [inhibitor, full curve, poor fit]. In the case of `O=C(NC(=S)Nc1ccc(N2CCCCC2)cc1)c1ccco1`, the Potency is reported as inconclusive: 31.6 µM [inhibitor, single point]. `O=C(Oc1ccc(Cl)c2cccnc12)c1cccc([N+](=O)[O-])c1` was tested, and the Potency was inconclusive: 28.2 µM [inhibitor, single point]. `CCN1CCN(C(=O)c2cc(S(=O)(=O)Nc3ccc(S(C)(=O)=O)cc3)ccc2Cl)CC1` was tested, and the “activity, negative = inhibition” value was inactive: 4.93%. For `O=C(NN1C(=O)/C(=C/C=C/c2ccco2)SC1=S)c1ccccc1O`, the Potency was active: 1.26 µM. In the case of `C(=N\Nc1ncnc2ccccc12)/c1ccccc1`, the Potency is reported as inconclusive: 6.31 µM [inhibitor, partial curve]. `C=C(C)c1cccc(C(C)(C)NC(=O)N2CCCC2)c1` was tested, and the Potency was inconclusive: 4.47 µM [inhibitor, single point]. For `COc1ccc(NCC(=O)N/N=C/c2c(C)nn(Cc3ccccc3)c2Cl)cc1`, the Potency was inconclusive: 25.1 µM [inhibitor, single point]. `Cc1ccc(C(=O)Nc2ccc(Br)cc2)cc1S(=O)(=O)Nc1ccccn1` was tested, and the “activity, negative = inhibition” value was inactive: 1.07%. For `O=C(COC(=O)Cc1ccsc1)Nc1ccccc1`, the Potency was inconclusive: 0.1 µM [inhibitor, full curve, poor fit]. With `COCCN(C(=O)c1cc2c(s1)CCC2)c1c(N)n(CC(C)C)c(=O)[nH]c1=O` the Potency was inconclusive: 31.6 µM [inhibitor, single point]. For `COCCOC(=O)c1[nH]c2c(c1C)C(=O)CC(c1ccco1)C2` (stereo unspecified), the Potency was active: 31.6 µM. With `O=C(CSc1nnc(-c2ccc(C(F)(F)F)cn2)o1)Nc1ccccc1Cl` the Potency was active: 31.6 µM. For `Cc1cc(Cl)ccc1NC(=S)N1CCN(Cc2ccc3c(c2)OCO3)CC1`, the Potency was inconclusive: 44.7 µM [inhibitor, partial curve, poor fit]. For `COc1cccc2cc(C(=O)C3=C(O)C(=O)N(CCN(C)C)C3c3ccc(F)cc3)oc12` (stereo unspecified), the “activity, negative = inhibition” value was inactive: -0.876%. In the case of `Cc1ccc(-c2ccc(/C=N/NC(=O)CN3CCOCC3)o2)cc1[N+](=O)[O-]`, the Potency is reported as inconclusive: 25.1 µM [inhibitor, single point].
